Each compound was assayed on MLKL phosphorylation, HT29-L23 human colorectal adenocarcinoma cells (assay: cells). Details: read-out: pMLKL HCS Cell Assay (IC50, uM).
`CC(CC(=O)N1C[C@H](F)[C@H](NC(=O)c2cc(-c3cc(C(F)(F)F)c4c(N)ncnn34)ccc2OCC(F)(F)F)C1)C(F)(F)F` (stereo partly drawn) [Example 1065, 5-[4-amino-5-(trifluoromethyl)pyrrolo[2,1-f][1,2,4]triazin-7-yl]-N-[(3R,4S)-4-fluoro-1-(4,4,4-trifluoro-3-methylbutanoyl)pyrrolidin-3-yl]-2-(2,2,2-trifluoroethoxy)benzamide] showed an IC50 of 0.096 µM. `C[C@@](O)(C(=O)N1C[C@H](F)[C@H](NC(=O)c2cc(-c3cc(C(F)(F)F)c4c(N)ncnn34)ccc2OCC(F)(F)F)C1)C(F)(F)F` [Example 1066, 5-[4-amino-5-(trifluoromethyl)pyrrolo[2,1-f][1,2,4]triazin-7-yl]-N-[(3R,4S)-4-fluoro-1-[(2R)-3,3,3-trifluoro-2-hydroxy-2-methylpropanoyl]pyrrolidin-3-yl]-2-(2,2,2-trifluoroethoxy)benzamide] gave an IC50 of 0.016 µM. For `CC(O)(CC(=O)N1C[C@H](F)[C@H](NC(=O)c2cc(-c3cc(C(F)(F)F)c4c(N)ncnn34)ccc2OCC(F)(F)F)C1)C(F)(F)F` (stereo partly drawn) [Example 1068, 5-[4-amino-5-(trifluoromethyl)pyrrolo[2,1-f][1,2,4]triazin-7-yl]-N-[(3R,4S)-4-fluoro-1-(4,4,4-trifluoro-3-hydroxy-3-methylbutanoyl)pyrrolidin-3-yl]-2-(2,2,2-trifluoroethoxy)benzamide], the IC50 was 0.106 µM. `Nc1ncnn2c(-c3ccc(OCC(F)(F)F)c(C(=O)N[C@@H]4CN(C(=O)C5CC5(F)F)C[C@@H]4F)c3)cc(C(F)(F)F)c12` (stereo partly drawn) [Example 1069, 5-[4-amino-5-(trifluoromethyl)pyrrolo[2,1-f][1,2,4]triazin-7-yl]-N-[(3R,4S)-1-(2,2-difluorocyclopropanecarbonyl)-4-fluoropyrrolidin-3-yl]-2-(2,2,2-trifluoroethoxy)benzamide] was tested, and the IC50 was 0.375 µM. Compound `Nc1ncnn2c(-c3ccc(OCC(F)(F)F)c(C(=O)N[C@@H]4CN(C(=O)C5CC(F)C5)C[C@@H]4F)c3)cc(C(F)(F)F)c12` (stereo partly drawn) [Example 1071, 5-[4-amino-5-(trifluoromethyl)pyrrolo[2,1-f][1,2,4]triazin-7-yl]-N-[(3R,4S)-4-fluoro-1-(3-fluorocyclobutanecarbonyl)pyrrolidin-3-yl]-2-(2,2,2-trifluoroethoxy)benzamide] has an IC50 of 0.131 µM. `Nc1ncnn2c(-c3ccc(OCC(F)(F)F)c(C(=O)N[C@@H]4CN(C(=O)C5CC(F)(F)C5)C[C@@H]4F)c3)cc(C(F)(F)F)c12` [Example 1072, 5-[4-amino-5-(trifluoromethyl)pyrrolo[2,1-f][1,2,4]triazin-7-yl]-N-[(3R,4S)-1-(3,3-difluorocyclobutanecarbonyl)-4-fluoropyrrolidin-3-yl]-2-(2,2,2-trifluoroethoxy)benzamide] gave an IC50 of 0.079 µM. `Nc1ncnn2c(-c3ccc(OCC(F)(F)F)c(C(=O)N[C@@H]4CN(C(=O)C5CCC(F)(F)CC5)C[C@@H]4F)c3)cc(C(F)(F)F)c12` [Example 1073, 5-[4-amino-5-(trifluoromethyl)pyrrolo[2,1-f][1,2,4]triazin-7-yl]-N-[(3R,4S)-1-(4,4-difluorocyclohexanecarbonyl)-4-fluoropyrrolidin-3-yl]-2-(2,2,2-trifluoroethoxy)benzamide] was tested, and the IC50 was 0.215 µM. Work on `Nc1ncnn2c(-c3ccc(OCC(F)(F)F)c(C(=O)N[C@@H]4CN(C(=O)C5(F)CC5)C[C@@H]4F)c3)cc(C(F)(F)F)c12` [Example 1074, 5-[4-amino-5-(trifluoromethyl)pyrrolo[2,1-f][1,2,4]triazin-7-yl]-N-[(3R,4S)-4-fluoro-1-(1-fluorocyclopropanecarbonyl)pyrrolidin-3-yl]-2-(2,2,2-trifluoroethoxy)benzamide] yielded an IC50 of 0.291 µM. For `Nc1ncnn2c(-c3ccc(OCC(F)(F)F)c(C(=O)N[C@@H]4CN(C(=O)c5ccccc5F)C[C@@H]4F)c3)cc(C(F)(F)F)c12` [Example 1076, 5-[4-amino-5-(trifluoromethyl)pyrrolo[2,1-f][1,2,4]triazin-7-yl]-N-[(3R,4S)-4-fluoro-1-(2-fluorobenzoyl)pyrrolidin-3-yl]-2-(2,2,2-trifluoroethoxy)benzamide], the IC50 was 0.222 µM.

— patent US11618753B2 (priority 2018, dated 2023)
